± gives the standard deviation of the averaged measurements. Some of the results follow.
These sequences were tested on PfAP2-EXP AP2 domain (GST-tagged) (assay: gcPBM binding intensity (ln(normalized median fluorescence intensity)); higher = stronger DNA binding).
Procedure, shortened: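 Each value is the highest Masliner-normalised natural-log median intensity across replicate spots of either orientation of a probe. The probes were primer-extended double-stranded 36-bp intergenic genomic sequences on an Agilent 4 × 180k array, alongside negative controls, exposed for 1 h to GST-tagged P. falciparum DNA-binding domains expressed in E. coli. Bound protein was picked up with Alexa488 anti-GST antibody and scanned at 488 nm.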

Row | Sequence | gcPBM binding intensity (ln)
1 | ATATGTATCTCATCGTGTACATGTATATAATATATA [XGTACX_site4139] | 8.66 ± 0.38
2 | ATATATCAAAATAATTGTACAAATTTTATATAATTT [XGTACX_site7249] | 8.37 ± 0.3
3 | TTAGAAAAATTATATATACACACTTATATTTATATA [CACACA_site2821] | 7.91 ± 0.38
4 | ATATAGTAAAGTTATACACACATGAATTTTCCCATG [CACACA_site6923] | 8.48 ± 0.32
5 | AATATAAATGTGATTACACACAACACATTTAAATGT [CACACA_site1212] | 8.49 ± 0.4
6 | GTCATATATAATTGTTGTACATTTTTATAATTATGT [XGTACX_site8091] | 8.86 ± 0.36
7 | AATTTTCTTAAAATTTGTACGTATATATTTAATATA [XGTACX_site3906] | 8.45 ± 0.32
8 | TATATATACTATAACACACATACACCCAAAAAAAAA [CACACA_site536] | 8.73 ± 0.48
9 | AAAAAATTATATTATGCACACATCGTTATATATATA [CACACA_site1201] | 8.92 ± 0.099
10 | CTTATACATATATATAGTACATATATCATTTTTATG [XGTACX_site4462] | 8.62 ± 0.3
11 | GAATAAATAAGATACGTACACACATATACAAAATAT [CACACA_site3660] | 8.86 ± 0.31
12 | AAAAATAAATTTATATATTACAAGAACAAATATAGT [XGTACX_negctrl_site567] | 8.79 ± 0.42
13 | TTTTTTTAAAAAAAGGGTACATATATATATTTTTCT [XGTACX_site1066] | 8.53 ± 0.4
14 | AAAAGGAAAGGAAAGGGTACAATCCTATTATATTAT [XGTACX_site8652] | 8.49 ± 0.34
15 | ATAATATAAACGTATACACACAAGAGAAGCATAAAG [CACACA_site2889] | 9.15 ± 0.59
16 | GTATTACATGAGGACACACACAAAAAAAATATATAT [CACACA_site769] | 8.96 ± 0.49
17 | TTATTATAAAAATGTAGTACAATACTTTTTTTTTTT [XGTACX_site732] | 8.05 ± 0.31
18 | TAATTATTTTAAAAAGTGCATTAAAAGATATTAAAT [GTGCAC_site9694] | 8.7 ± 0.21
19 | TATATATCTATAAACACACACCAAAATTTGTGCTTT [CACACA_site7448] | 8.5 ± 0.35
20 | ATATATATATATTATATGCACACGTTAAAATTTCAT [CACACA_site709] | 9.69 ± 0.3
21 | ATATACTTTAAAGGTTAAGAAAGAAAAAAAAAAAAA [CACACA_negctrl_site956] | 8.52 ± 0.39
22 | ATAAAATGAACAAACACACACACATATATTTATATA [CACACA_site7181] | 8.69 ± 0.49
23 | AAATAAAAAGAAAAGAAAAAGAAAATAAAAAGAGAA [XGTACX_negctrl_site14] | 8.82 ± 0.52

Row | Sequence | gcPBM binding intensity (ln)
24 | TGACATAATGTGTGTAGTACATATATCGTTATTTGA [XGTACX_site5152] | 8.34 ± 0.25
25 | TGAATAAATATAAAAGGTACACATATAAATATATAT [XGTACX_site6349] | 8.54 ± 0.28
26 | TATGTAGGTAAAAATTGTACTTTTTTTTTAATATTT [XGTACX_site2303] | 8.34 ± 0.35
27 | TAACTCTATTTTTTTGCATGCTGAAGCTATGAGTTT [TGCATGCA_site821] | 9.34 ± 0.47
28 | CACAAAAATAGACACACACACATATAAATAAATATA [CACACA_site6598] | 8.62 ± 0.47
29 | ATAAAAATAAAATAAGGTACAGACGAAAAAATTGAA [XGTACX_site5097] | 9.07 ± 0.47
30 | TATATATTTCATAATACACACGAAAAAAAAAAAAAA [CACACA_site8972] | 8.7 ± 0.41
31 | ATAATATTATGTGTGAATATATCTTTAAAAAGGATA [GTGCAC_negctrl_site15] | 8.4 ± 0.41
32 | ATATATATTATATAGTGTACCTATGTATAATAATAT [XGTACX_site1683] | 8.41 ± 0.35
33 | TATATATATAAATACACACACACCGTCCGTGTTAAA [CACACA_site5623] | 8.855 ± 0.049
34 | ATATATATATATATATGTACACATATTATAAAAAAA [XGTACX_site8644] | 10.2 ± 0.32
35 | TATAAAATAAAAGTAAATATATATATATATATATAT [TGCATGCA_negctrl_site208] | 10.1 ± 0.3
36 | ATATATTATAATGATACACACAAGAAATAAAATTAC [CACACA_site3095] | 8.65 ± 0.14
37 | TTCTAGAAAACTGATCGTACAAATAAATATAGACAC [XGTACX_site2808] | 8.88 ± 0.28
38 | AATGCATACACATATTGTACTAAGCCATACAACACA [XGTACX_site305] | 8.69 ± 0.42
39 | AAAATAGGGATCACGTGTACATATAAAGTGACATAC [XGTACX_site8190] | 9.16 ± 0.49
40 | TTTGACATACCTCTTGCATGTGAAAAACTTTTCGCT [TGCATGCA_site364] | 8.87 ± 0.3
41 | ATATATAATATTTATTGTACTATTTTATTTTTATAA [XGTACX_site705] | 8.41 ± 0.27
42 | AAAAAAGACCATGTTAGTACATAAGATTTTTTTCAT [XGTACX_site4298] | 8.31 ± 0.41
43 | AATACGTTATTATTTTGTACATATAAATAATAAGTT [XGTACX_site815] | 8.43 ± 0.37
44 | AACATACGAATATTCACACATAAATATATAAATCGC [CACACA_site4672] | 8.64 ± 0.42
45 | ATTTCTATTTGGGTTAGTACATATAAGTCTATTTTC [XGTACX_site3234] | 8.62 ± 0.42
46 | ACTCTTTTAACGCAAAGTACTTTTTAAAATATTTCG [XGTACX_site7534] | 9.04 ± 0.4

Row | Sequence | gcPBM binding intensity (ln)
47 | TATTATATATATATCACACATATATTCATGTACATA [CACACA_site5432] | 8.63 ± 0.45
48 | TTTTTTTTTTCTTTTTGTACATATTCATAACAAGTA [XGTACX_site2784] | 8.55 ± 0.44
49 | TATATAATCGAGTGCACACACAAAAAAAAAGTGAAC [CACACA_site1483] | 9.18 ± 0.49
50 | AGATGATATACGTAAACACACAAATAAAAAAAATTT [CACACA_site3327] | 8.63 ± 0.61
51 | ACAAAAAAATAAGGTGCACACAAAAAAAAAAAAAAA [CACACA_site8171] | 9.02 ± 0.11
52 | ATATAGCATATAATTTGTACACAGGCCATACCTGAA [XGTACX_site533] | 8.48 ± 0.38
53 | TTTTTTTTTTTTTGATGTACTTATTTAATAAGATAT [XGTACX_site376] | 8.43 ± 0.45
54 | TATATGGCATATTTCACACACACATAATGAATATTA [CACACA_site9181] | 8.46 ± 0.51
55 | GAGTTCAGTTTTTGTTGTACTTATTCTTAATATGTC [XGTACX_site6083] | 8.68 ± 0.3
56 | ATCCAAAAAATTAATGCATGCGCAAAAAATAGCTTA [TGCATGCA_site615] | 8.74 ± 0.47
57 | TGTCCTTATTTGCACACACACATATAAGAAATTTAA [CACACA_site7485] | 8.97 ± 0.29
58 | AAAAAAAAAACATACACACACATATATATATATATG [CACACA_site1586] | 8.64 ± 0.32
59 | TTTGTTTTATCTTATATGCACACGATAAAAAAAAAA [CACACA_site2673] | 8.48 ± 0.3
60 | ATTATATGTAACACGTGTACCTATTTATGTATGCTT [XGTACX_site5748] | 8.87 ± 0.33
61 | GATATATAAACATATACACACAAAAACATATTTATA [CACACA_site6734] | 8.49 ± 0.41
62 | AATATACAAAATATCACACATATAAAATAATATATA [CACACA_site6067] | 8.27 ± 0.5
63 | AAATAATATGTAATCAAATTCACCAAACGAAAAAAA [TGCATGCA_negctrl_site33] | 8.62 ± 0.5
64 | AATGGTTCAACGTAGTGTACGTAATAAATAATAAAT [XGTACX_site8668] | 8.8 ± 0.31
65 | TGATAATTTCATTTTGCATGTGACAATACAAGATGT [TGCATGCA_site203] | 8.59 ± 0.18
66 | TAAAATAAATTGTGCACACATATTTATAAATATGAA [CACACA_site2331] | 8.91 ± 0.34
67 | ATGGACTTTTATAGTTGTACATACTATGAGAACTTT [XGTACX_site2800] | 8.69 ± 0.71
68 | TACATATAAAAGTACACACACACACCCATATATATA [CACACA_site941] | 8.93 ± 0.32
69 | GTTTATCACAGCCACGCACACATAATATATGTATAT [CACACA_site3669] | 8.8 ± 0.5

Row | Sequence | gcPBM binding intensity (ln)
70 | TATTGCCCGAAACACACACACATATATATATATATA [CACACA_site2491] | 10.3 ± 0.2
71 | TATAATATTTACGACAGTACATATATATATATGTAT [XGTACX_site8332] | 8.51 ± 0.4
72 | AAATAATTTGTTGACACACACACACCCATACATATA [CACACA_site2285] | 8.9 ± 0.69
73 | ATCTGTCGACAGGACAGTACACAGTAGCCAGGAAAT [XGTACX_site1994] | 9.03 ± 0.67
74 | TATATATATATATATATATATATGTATGTGCATTTA [TGCATGCA_negctrl_site53] | 10.1 ± 0.69
75 | ATTTAGAAAAATAAAACACACATATATATGTAAATA [CACACA_site4113] | 8.66 ± 0.48
76 | ATATAAAAATGTAAGGGTACATAATAAATAATCAAA [XGTACX_site5217] | 8.66 ± 0.34
77 | AAAAAATATTAATATAGTACTTTATATTTATAAGTA [XGTACX_site6895] | 8.46 ± 0.6
78 | GGAAAAAATATATGCACACCCCCCAAAAAAAAAAAA [CACACA_site2222] | 10.95 ± 0.099
79 | TTTTTGTTATTTTTAGTGCACATTTAAGGGTGTATT | 9.13 ± 0.014
80 | TATATCTTACTTTTTGCACACACTAATATTATTGTT [CACACA_site1640] | 9.03 ± 0.38
81 | ACAAAATTTACAAAATGTACAAAATTTACAAAATGT [XGTACX_site6464] | 8.37 ± 0.4
82 | GAAGGAAAAACAGAATGTACATAAATAAACGTATAT [XGTACX_site753] | 9.15 ± 0.73
83 | AATACGGCAAACATTAAAAAATATAATAACAATAAA [CACACA_negctrl_site868] | 8.66 ± 0.33
84 | TAAGGATGAATCCTTTGTACATATATATATATATAT [XGTACX_site1242] | 10.2 ± 0.28
85 | TGAAAAGAAAACACATGTACAAATATATAAATATAA [XGTACX_site6098] | 8.71 ± 0.44
86 | GTTATACATTTTGATTGTACATAAACCATTTGAGCA [XGTACX_site7283] | 8.62 ± 0.31
87 | TTTTTTTAAATATACACACACATTTATACATATATA [CACACA_site3400] | 8.51 ± 0.39
88 | TTTAACGTTGAATATACACACATATATATATATATA [CACACA_site3698] | 10.2 ± 0.44
89 | ATATATTTTTGTAGTGTGCACGTTTATATGGTGAAA | 9.48 ± 0.35

From the supplement of paper PMC11417369
